Changes are numbered by the printed parent chain. Names and notes keep the numbering of the source.
B1: tear lipocalin mutein S261.1-J01 (designed binder)
chain: ASDEEIQDVSGTWYLKAMTVDTQDPLSLYVSVTPLTLTTLEGGNLEAMVTLNQVGRSQEVLAVLEKTDEPGKYTAYGGAHVAYITRSHVKDHYIFYSEGDTWGGPVPGVWLVGRDPKNNLEALEDFEKAAGARGLSTESILIPRQSETSSPG
B2: tear lipocalin mutein S244.2-H08 (designed binder)
chain: B1 chain with D24M, L35I, N44S, M48T, V54I, L61R, T85S
B3: S244.2-H08_T40C (designed binder)
chain: B1 chain with D24M, L35I, T36C, N44S, M48T, V54I, L61R, T85S
notes: Cys variant of S244.2-H08 with a free cysteine; also called S244.2-H08 Thr 40 -> Cys
B4: S244.2-H08_V93C (designed binder)
chain: B1 chain with D24M, L35I, N44S, M48T, V54I, L61R, T85S, V89C
notes: The position is counted on mature human tear lipocalin and may be shifted on the entry if its N-terminus is truncated; also called S244.2-H08 Val 93 -> Cys
B5: S244.2-H08_R90C (designed binder)
chain: B1 chain with D24M, L35I, N44S, M48T, V54I, L61R, T85S, R86C
notes: Cys variant of S244.2-H08 with a free cysteine; also called S244.2-H08 Arg 90 -> Cys
B6: S244.2-H08_D95C (designed binder)
chain: B1 chain with D24M, L35I, N44S, M48T, V54I, L61R, T85S, D91C
notes: Cys variant of S244.2-H08 with a free cysteine; also called S244.2-H08 Asp 95 -> Cys
B7: S244.2-H08_K121C (designed binder)
chain: B1 chain with D24M, L35I, N44S, M48T, V54I, L61R, T85S, K117C
notes: Cys variant of S244.2-H08 with a free cysteine; also called S244.2-H08 Lys 121 -> Cys
B8: S244.2-H08_N123C (designed binder)
chain: B1 chain with D24M, L35I, N44S, M48T, V54I, L61R, T85S, N119C
notes: Cys variant of S244.2-H08 with a free cysteine; also called S244.2-H08 Asn 123 -> Cys
B9: tear lipocalin mutein S261.1-L17 (designed binder)
chain: B1 chain with T33S, L35I, M48T, V54I, T85H
B10: tear lipocalin mutein S244.4-N05 (designed binder)
chain: B1 chain with T22P, D24M, L35M, M48E, L61R
notes: Purified via Strep-tag
B11: tear lipocalin mutein S244.8-I20 (designed binder)
chain: B1 chain with D24M, L35I, T39A, M48E, L61K, K72R
notes: Purified via Strep-tag
B12: tear lipocalin mutein S244.5-J05 (designed binder)
chain: B1 chain with D24M, L35M, M48E, V54I, L61R, K72R
B13: S275.3-L03 (Dimer) (designed binder)
chain 1: B1 chain with P25C, T33S, L35I, M48T, V54I, T85H
chain 2: B1 chain with P25C, T33S, L35I, M48T, V54I, T85H
modifications: Dimer probably joined by a disulfide between the new Cys 29 (piece position 25) of the two chains; the patent does not say so.
notes: The monomer row is written under m38; also called P29C
B14: affinity-maturated tear lipocalin mutein L03 (designed binder)
chain: B1 chain with P25C, T33S, L35I, M48T, V54I, T85H
B15: affinity-maturated tear lipocalin mutein O07 (designed binder)
chain: B1 chain with P25L, T33S, L35I, M48T, V54I, T85H
B16: affinity-maturated tear lipocalin mutein K06 (designed binder)
chain: B1 chain with P25A, T33S, L35I, M48T, V54I, T85H
B17: affinity-maturated tear lipocalin mutein O24 (designed binder)
chain: B1 chain with T22E, T33S, L35I, M48T, V54I, T85H
B18: affinity-maturated tear lipocalin mutein K15 (designed binder)
chain: B1 chain with Q23D, T33S, L35I, M48T, V54I, T85H
B19: affinity-maturated tear lipocalin mutein K22 (designed binder)
chain: B1 chain with T22L, T33S, L35I, M48T, V54I, T85H
B20: affinity-maturated tear lipocalin mutein M02 (designed binder)
chain: B1 chain with T22A, T33S, L35I, M48T, V54I, T85H

These binders were tested against T1, c-Met receptor-Fc (R&D Systems) (human, UniProt P08581 25-932) (assay: SPR as in Example 7 (c-Met receptor-Fc on CM5 chip)).
T1 construct: range 1-932; Bought from R&D Systems; also called c-Met receptor-Fe; not shown: Fc region of a human IgG

Row | Kd | Binder
1 | 2.3 nM | B1

What follows are binders tested against T1, c-Met receptor-Fc (R&D Systems) (assay: SPR as in Example 7 (c-Met receptor-Fc on chip); column head 'Affinity [nM]').
T1 sequence (P08581 25-932, form in doubt): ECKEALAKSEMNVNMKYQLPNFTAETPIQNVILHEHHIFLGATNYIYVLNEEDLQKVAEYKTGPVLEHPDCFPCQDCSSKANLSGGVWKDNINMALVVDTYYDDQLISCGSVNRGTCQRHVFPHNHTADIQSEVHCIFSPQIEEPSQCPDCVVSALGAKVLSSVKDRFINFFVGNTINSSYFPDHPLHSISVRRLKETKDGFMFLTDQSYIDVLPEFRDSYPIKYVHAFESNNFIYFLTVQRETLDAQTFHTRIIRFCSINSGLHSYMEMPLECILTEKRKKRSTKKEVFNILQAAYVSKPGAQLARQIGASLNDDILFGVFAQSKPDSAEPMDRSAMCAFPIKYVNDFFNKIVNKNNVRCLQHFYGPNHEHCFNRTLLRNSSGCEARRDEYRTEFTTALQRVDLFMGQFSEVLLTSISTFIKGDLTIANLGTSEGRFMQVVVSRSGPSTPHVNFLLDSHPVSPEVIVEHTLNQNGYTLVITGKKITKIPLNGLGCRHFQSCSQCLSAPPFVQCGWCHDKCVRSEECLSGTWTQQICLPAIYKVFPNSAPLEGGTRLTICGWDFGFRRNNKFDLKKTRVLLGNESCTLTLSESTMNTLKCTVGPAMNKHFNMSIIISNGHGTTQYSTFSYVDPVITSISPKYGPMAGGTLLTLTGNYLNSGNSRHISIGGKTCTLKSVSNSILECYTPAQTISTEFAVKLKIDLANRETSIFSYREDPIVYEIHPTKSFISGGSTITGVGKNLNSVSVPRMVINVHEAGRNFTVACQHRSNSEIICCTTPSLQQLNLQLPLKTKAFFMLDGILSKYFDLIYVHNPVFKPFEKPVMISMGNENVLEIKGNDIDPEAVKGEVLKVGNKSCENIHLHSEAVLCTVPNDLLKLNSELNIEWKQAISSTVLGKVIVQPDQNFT

Row | Kd | Binder
2 | 8 nM | B2
3 | 40 nM | B3
4 | 21 nM | B4
5 | 35 nM | B5
6 | 11 nM | B6
7 | 8 nM | B7
8 | 14 nM | B8

These binders were tested against T1, c-Met receptor-Fc (R&D Systems) (assay: ELISA, mutein titrated on c-Met receptor-Fc captured via anti-human IgG-Fc mAb, in absence of HGF).

Row | Kd | Binder
9 | 1.9 nM | B9

Each binder was assayed against T1, c-Met receptor-Fc (R&D Systems) (assay: SPR (BIAcore), c-Met receptor-Fc immobilized on CM5 chip, mutein injected; mean of at least 3 measurements).

Row | Kd | Binder
10 | 9.9 nM | B2
11 | 24 nM | B10
12 | 23 nM | B11
13 | 15.5 nM | B12

The binders below were run against c-Met (construct used in Example 21 / FIG. 15 not stated) (UniProt P08581 25-932, limits assumed) (assay: drawn table of Kon, Koff and KD; method not named in Example 21 (column heads as in the SPR Table IV)).

Row | Kd | koff | kon | Binder
14 | 5.8 nM | – | – | B9
15 | 0.97 nM | 1.66e-05 s⁻¹ | 17100 M⁻¹ s⁻¹ | B13
16 | 1.8 nM | 3.02e-05 s⁻¹ | 16500 M⁻¹ s⁻¹ | B14
17 | 6.3 nM | 9.1e-05 s⁻¹ | 14500 M⁻¹ s⁻¹ | B15
18 | 6 nM | 8.78e-05 s⁻¹ | 14700 M⁻¹ s⁻¹ | B16
19 | 2.7 nM | 5.21e-05 s⁻¹ | 19700 M⁻¹ s⁻¹ | B17
20 | 2.4 nM | 4.1e-05 s⁻¹ | 17600 M⁻¹ s⁻¹ | B18
21 | 3.9 nM | 6.99e-05 s⁻¹ | 17800 M⁻¹ s⁻¹ | B19
22 | 3 nM | 5.7e-05 s⁻¹ | 19400 M⁻¹ s⁻¹ | B20

These binders were tested against T1, c-Met receptor-Fc (R&D Systems) (assay: ELISA, mutein titrated on c-Met receptor-Fc captured via anti-human IgG-Fc mAb, in presence of 300 nM HGF as competitor).

Row | Kd | Binder
23 | 2.5 nM | B9
